Reference: ChEMBL document CHEMBL4888484, “Replenishing the malaria drug discovery pipeline: Screening and hit evaluation of the MMV Hit Generation Library 1 (HGL1) against asexual blood stage Plasmodium falciparum ,using a nano luciferase reporter read-out” (2022)
Hit rate of the full screen: of about 150,000 compounds, about 540 (0.36%) showed an effect of 50% or more. The list shows a part of the results.

Each molecule was assayed on Plasmodium falciparum (assay: Primary screen in NF54 nanoGlo assay, in single point, at 2uM, 72h; a lower Z score goes with more inhibition). Settings: timepoint 72 hour.
Type: functional, Erythrocyte
C[C@@H](c1ccc(F)c(Cl)c1)N(C)CC(N)=O was tested, and the “% Inhibition” value was -14% and the Z score was 1.87. In the case of COC[C@@H]1CN(C(=O)c2ccncc2)C[C@H]1c1ccncc1, the “% Inhibition” value is reported as -13% and the Z score is reported as 2.18. For Cc1noc(C)c1CN(C)C(=O)N[C@H]1CCCN(C)C1, the “% Inhibition” value was 3% and the Z score was -0.26. In the case of CC[C@H](NC(=O)c1cn(C2CC2)c(C)cc1=O)c1c(C)noc1C, the “% Inhibition” value is reported as -14% and the Z score is reported as 1.74. With c1ccc(OCCNCc2cscn2)cc1 the “% Inhibition” value was -8% and the Z score was 1.66. In the case of CC(=O)N1CCC(C(=O)O[C@@H](C)COc2cccc(F)c2)CC1, the “% Inhibition” value is reported as 0% and the Z score is reported as -0.02. With Cc1ccc(O[C@H]2CCOC[C@H]2NC(=O)C2CCS(=O)(=O)CC2)cn1 the “% Inhibition” value was -20% and the Z score was 1.89. In the case of c1csc(-c2n[nH]c3c2CN(c2nc4ccccc4o2)CC3)c1, the “% Inhibition” value is reported as -15% and the Z score is reported as 2.15. In the case of CCC1(CC)CN(C(=O)N[C@@H]2CCC[C@H]2c2ccccc2)CCS1(=O)=O, the “% Inhibition” value is reported as -6% and the Z score is reported as 0.86. With Cc1ccc(CN2C(=O)[C@H]3C(C(=O)Nc4ccc(C(C)C)cc4)[C@H]4C=C[C@@]3(O4)C2C(=O)NC2CCCC(C)C2C)cc1 (stereo partly specified) the “% Inhibition” value was -12% and the Z score was 1.89. In the case of FC(F)(F)c1nc(-c2ccc3[nH]ccc3c2)n[nH]1, the “% Inhibition” value is reported as 25% and the Z score is reported as -2.68. With CCn1ncc(C(=O)n2nc(C)cc2C)c1C the “% Inhibition” value was 35% and the Z score was -1.04. With CCN1CCCn2cc(S(=O)(=O)Nc3ccc(Cl)cc3)cc2C1=O the “% Inhibition” value was -3% and the Z score was 0.37. For CC(F)(F)c1ccccc1NC(=O)NC[C@H]1CCCC12CC2, the “% Inhibition” value was 2% and the Z score was -0.35. Cc1ccc(-c2ccc(O)cn2)c2cccnc12 was tested, and the “% Inhibition” value was 0% and the Z score was -0.03. For CC[C@H](NC(=O)c1cnn(Cc2ccccc2)c1)c1nc(C)n[nH]1, the “% Inhibition” value was -7% and the Z score was 0.82. In the case of CCc1sc(C(=O)Nc2ccc(CC(=O)N3CCOCC3)cc2)cc1C, the “% Inhibition” value is reported as -13% and the Z score is reported as 2.5. With Cc1cc([C@@H](OC(=O)C2CCC(C(N)=O)CC2)C2CC2)ccc1F (stereo partly specified) the “% Inhibition” value was 19% and the Z score was -2.22. In the case of CCOC(=O)c1c(C)nc(N2CCC3(CC2)OCCO3)n1C, the “% Inhibition” value is reported as 4% and the Z score is reported as -0.49. For COc1ccc(C(=O)N2CCC[C@H](n3cc(C(=O)NCC(C)C)nn3)C2)cc1, the “% Inhibition” value was 12% and the Z score was -1.53. For CCC(=O)C1CCCCN1C(=O)[C@H](O)c1ccccc1 (stereo partly specified), the “% Inhibition” value was 3% and the Z score was -0.32. In the case of Cc1cc(NC(=O)c2cn3c4c(c(N5CCN(C)CC5)c(F)cc4c2=O)OC[C@@H]3C)nn1C, the “% Inhibition” value is reported as 3% and the Z score is reported as -0.44. For COCCc1ncc(-c2c(-c3ccccc3)ncn2CCC(=O)O)cn1, the “% Inhibition” value was 4% and the Z score was -0.56.
